Compound in this experiment: N#CC[C@H](C1CCCC1)n1cc(-c2ncnc3[nH]ccc23)cn1 [Ruxolitinib]
Nature of the experiment: Viability of human cancer cell lines after 72 h of drug (GDSC screen). As to the method: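 Human cancer cell lines in 384-well plates, medium with 10% serum, drug for 72 h over a 256-fold dose range (nine 2-fold or five 4-fold steps up to the top dose). Adherent lines were fixed and stained with the nucleic acid dye Syto60, suspension lines read with resazurin; signal relative to control wells, capped at 0 and 100%. One two-parameter sigmoid per drug and line, fitted in a mixed model over all curves with the slope shared within a line.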

A lower IC50 marks a more sensitive line; fits outside the tested doses are given as limits. AUC is the area under the same curve over the 256-fold range up to the top dose, as a fraction; the more sensitive the line, the further below 1.

With “RL95-2 (endometrium, adherent, top dose 5.24 µM)”, the AUC stood at 0.987 and the IC50 was above 5.24 µM.
Take “LOU-NH91 (lung squamous cell carcinoma, adherent, top dose 5.24 µM)”: the AUC is 0.979 and the IC50 is above 5.24 µM.
Regarding “NCI-H2228 (lung adenocarcinoma, adherent, top dose 5.24 µM)”, the AUC was 0.917 and the IC50 was above 5.24 µM.
For the cell line “no-11 (glioma, adherent, top dose 5.24 µM)”, the AUC amounted to 0.961 and the IC50 was above 5.24 µM.
As to “A172 (glioma, adherent, top dose 5.24 µM)”, the AUC worked out at 0.984 and the IC50 is above 5.24 µM.
For the cell line “RF-48 (stomach, adherent, top dose 5.24 µM)”, the AUC came out at 0.983 and the IC50 is above 5.24 µM.
Take “NUGC-4 (stomach, adherent, top dose 5.24 µM)”: the AUC was found to be 0.986 and the IC50 is above 5.24 µM.
On the same counts, the results for “RCC-FG2 (kidney, adherent, top dose 5.24 µM)” are 0.979 and above 5.24 µM.
The corresponding values for “HDLM-2 (Hodgkin lymphoma, suspension, top dose 5.24 µM)” are 0.607 and 0.642 µM.
Take “TT2609-C02 (thyroid, adherent, top dose 5.24 µM)”: the AUC was 0.984 and the IC50 is above 5.24 µM.
For the cell line “BB49-HNC (head and neck, adherent, top dose 5.24 µM)”, the AUC worked out at 0.973 and the half-maximal inhibitory concentration (IC50) is above 5.24 µM.
On the same counts, the results for “Hs-445 (Hodgkin lymphoma, suspension, top dose 5.24 µM)” are 0.988 and above 5.24 µM.
For the cell line “NUGC-3 (stomach, adherent, top dose 5.24 µM)”, the AUC worked out at 0.984 and the concentration for half-maximal inhibition (IC50) was above 5.24 µM.
As for “EC-GI-10 (oesophagus, adherent, top dose 5.24 µM)”, the AUC was 0.989 and the IC50 was above 5.24 µM.
For the cell line “SUP-M2 (anaplastic large cell lymphoma, suspension, top dose 5.24 µM)”, the AUC stood at 0.835 and the IC50 turned out to be 2.35 µM.
On the same counts, the results for “KELLY (neuroblastoma, adherent, top dose 5.24 µM)” are 0.985 and above 5.24 µM.
With “NCI-H1651 (lung adenocarcinoma, adherent, top dose 5.24 µM)”, the AUC turned out to be 0.987 and the IC50 was above 5.24 µM.
In the case of “SW156 (kidney, adherent, top dose 5.24 µM)”, the AUC amounted to 0.979 and the IC50 was above 5.24 µM.
With “YMB-1-E (breast, adherent, top dose 5.24 µM)”, the AUC was 0.978 and the IC50 is above 5.24 µM.
The corresponding values for “SBC-1 (small cell lung carcinoma, suspension, top dose 5.24 µM)” are 0.989 and above 5.24 µM.
As for “MOG-G-UVW (glioma, adherent, top dose 5.24 µM)”, the AUC was 0.94 and the half-inhibitory concentration (IC50) is above 5.24 µM.
On to “GT3TKB (stomach, adherent, top dose 5.24 µM)”, for which the AUC worked out at 0.988 and the IC50 is above 5.24 µM.
The corresponding values for “NCI-H1299 (large cell lung carcinoma, adherent, top dose 5.24 µM)” are 0.982 and above 5.24 µM.
On the same counts, the results for “DND-41 (T-cell leukaemia, suspension, top dose 5.24 µM)” are 0.433 and 0.22 µM.
For “PF-382 (T-cell lymphoblastic leukaemia, suspension, top dose 5.24 µM)”, the AUC was determined as 0.972 and the half-inhibitory concentration (IC50) is above 5.24 µM.
The corresponding values for “H2461 (mesothelioma, adherent, top dose 5.24 µM)” are 0.983 and above 5.24 µM.
On the same counts, the results for “NB5 (neuroblastoma, adherent, top dose 5.24 µM)” are 0.986 and above 5.24 µM.
Take “NB7 (neuroblastoma, adherent, top dose 5.24 µM)”: the AUC turned out to be 0.985 and the IC50 is above 5.24 µM.
Consider “MFM-223 (breast, adherent, top dose 5.24 µM)”, for which the AUC was found to be 0.985 and the IC50 was above 5.24 µM.
With “CL-11 (large intestine, adherent, top dose 5.24 µM)”, the AUC turned out to be 0.986 and the half-maximal inhibitory concentration (IC50) is above 5.24 µM.
Turning to “SHP-77 (small cell lung carcinoma, semi-adherent, top dose 5.24 µM)”, the AUC amounted to 0.99 and the IC50 was above 5.24 µM.
In the case of “MZ7-mel (melanoma, adherent, top dose 5.24 µM)”, the AUC was 0.986 and the IC50 was above 5.24 µM.
As to “OC-314 (ovary, adherent, top dose 5.24 µM)”, the AUC stood at 0.991 and the IC50 is above 5.24 µM.
Turning to “Ramos-2G6-4C10 (Burkitt lymphoma, suspension, top dose 5.24 µM)”, the AUC turned out to be 0.99 and the IC50 is above 5.24 µM.
On to “UM-UC-3 (bladder, adherent, top dose 5.24 µM)”, for which the AUC worked out at 0.978 and the IC50 is above 5.24 µM.
As for “TE-15 (oesophagus, suspension, top dose 5.24 µM)”, the AUC was 0.958 and the IC50 was above 5.24 µM.
“MDST8 (large intestine, adherent, top dose 5.24 µM)”: the AUC was 0.986 and the IC50 is above 5.24 µM.
For the cell line “SNU-61 (large intestine, adherent, top dose 5.24 µM)”, the AUC worked out at 0.985 and the concentration for half-maximal inhibition (IC50) was above 5.24 µM.
With “NCI-H1417 (small cell lung carcinoma, suspension, top dose 5.24 µM)”, the AUC is 0.916 and the IC50 was above 5.24 µM.
With “LS-411N (large intestine, adherent, top dose 5.24 µM)”, the AUC is 0.976 and the 50% inhibitory concentration (IC50) was above 5.24 µM.
Regarding “ONS-76 (medulloblastoma, adherent, top dose 5.24 µM)”, the AUC amounted to 0.981 and the IC50 is above 5.24 µM.
For the cell line “MC116 (B-cell lymphoma, suspension, top dose 5.24 µM)”, the AUC came to 0.999 and the IC50 is above 5.24 µM.
“EGI-1 (biliary tract, adherent, top dose 5.24 µM)”: the AUC is 0.974 and the IC50 was above 5.24 µM.
For the cell line “SiHa (cervix, adherent, top dose 5.24 µM)”, the AUC was found to be 0.986 and the IC50 was above 5.24 µM.
Consider “EW-3 (Ewing sarcoma, adherent, top dose 5.24 µM)”, for which the AUC turned out to be 0.983 and the IC50 was above 5.24 µM.
As for “COLO-679 (melanoma, adherent, top dose 5.24 µM)”, the AUC came out at 0.985 and the IC50 is above 5.24 µM.
On the same counts, the results for “SNU-175 (large intestine, suspension, top dose 5.24 µM)” are 0.987 and above 5.24 µM.
“CESS (acute myeloid leukaemia, suspension, top dose 5.24 µM)”: the AUC came to 0.99 and the IC50 was above 5.24 µM.
With “NB69 (neuroblastoma, adherent, top dose 5.24 µM)”, the AUC worked out at 0.98 and the IC50 is above 5.24 µM.
For the cell line “NCI-H1688 (small cell lung carcinoma, adherent, top dose 5.24 µM)”, the AUC came out at 0.977 and the IC50 is above 5.24 µM.
With “KALS-1 (glioma, adherent, top dose 5.24 µM)”, the AUC is 0.962 and the IC50 is above 5.24 µM.
On the same counts, the results for “KNS-42 (glioma, adherent, top dose 5.24 µM)” are 0.98 and above 5.24 µM.
Consider “FU97 (stomach, adherent, top dose 5.24 µM)”, for which the AUC is 0.983 and the IC50 was above 5.24 µM.
On to “NCI-H2444 (non-small cell lung carcinoma, adherent, top dose 5.24 µM)”, for which the AUC amounted to 0.988 and the IC50 was above 5.24 µM.
On to “RO82-W-1 (thyroid, adherent, top dose 5.24 µM)”, for which the AUC came to 0.983 and the half-maximal inhibitory concentration (IC50) was above 5.24 µM.
As to “NCI-H28 (mesothelioma, adherent, top dose 5.24 µM)”, the AUC stood at 0.978 and the IC50 is above 5.24 µM.
For “SNU-423 (liver, adherent, top dose 5.24 µM)”, the AUC amounted to 0.979 and the IC50 was above 5.24 µM.
Turning to “HSC-39 (stomach, suspension, top dose 5.24 µM)”, the AUC was 0.979 and the IC50 is above 5.24 µM.
On the same counts, the results for “NCI-H524 (small cell lung carcinoma, suspension, top dose 5.24 µM)” are 0.988 and above 5.24 µM.
Regarding “UWB1.289 (ovary, adherent, top dose 5.24 µM)”, the AUC amounted to 0.976 and the IC50 is above 5.24 µM.
In the case of “PANC-03-27 (pancreas, adherent, top dose 5.24 µM)”, the AUC worked out at 0.989 and the IC50 was above 5.24 µM.
Regarding “SCC-15 (head and neck, adherent, top dose 5.24 µM)”, the AUC worked out at 0.968 and the IC50 is above 5.24 µM.
“SU8686 (pancreas, adherent, top dose 5.24 µM)”: the AUC is 0.986 and the IC50 was above 5.24 µM.
The corresponding values for “KYSE-150 (oesophagus, adherent, top dose 5.24 µM)” are 0.989 and above 5.24 µM.
In the case of “ARH-77 (myeloma, suspension, top dose 5.24 µM)”, the AUC turned out to be 0.965 and the IC50 was above 5.24 µM.

By IC50 is commonly meant the midpoint of a concentration-inhibition curve.

(Values after the supplement of paper PMC4967469.)
